Values joined by “and” are separate entries in the source; they are usually repeats but may differ in a detail not shown here. Identical values can stand only once. The entries are a selection whose mix differs from that of the whole data set. Results filed as inconclusive are left out. Active and inactive are the calls of the source. The call rests on the fitted dose curve; in most records, active means well fitted curve in the direction sought with a large enough effect; inconclusive means small, poorly fitted or top-dose-only effect, or effect the other way; inactive means no such curve, though single readings can be large or run the other way.
target: Cytochrome P450 2C9 (Homo sapiens) (UniProt P11712); assay: Cytochrome panel assay with activity outcomes; settings: recombinant CYP, pro-luciferin dealkylation, luminescence, p450-cyp2c9; series mostly up to 57.1 µM
Chain of UniProt P11712 (P11712 whole entry, looked up): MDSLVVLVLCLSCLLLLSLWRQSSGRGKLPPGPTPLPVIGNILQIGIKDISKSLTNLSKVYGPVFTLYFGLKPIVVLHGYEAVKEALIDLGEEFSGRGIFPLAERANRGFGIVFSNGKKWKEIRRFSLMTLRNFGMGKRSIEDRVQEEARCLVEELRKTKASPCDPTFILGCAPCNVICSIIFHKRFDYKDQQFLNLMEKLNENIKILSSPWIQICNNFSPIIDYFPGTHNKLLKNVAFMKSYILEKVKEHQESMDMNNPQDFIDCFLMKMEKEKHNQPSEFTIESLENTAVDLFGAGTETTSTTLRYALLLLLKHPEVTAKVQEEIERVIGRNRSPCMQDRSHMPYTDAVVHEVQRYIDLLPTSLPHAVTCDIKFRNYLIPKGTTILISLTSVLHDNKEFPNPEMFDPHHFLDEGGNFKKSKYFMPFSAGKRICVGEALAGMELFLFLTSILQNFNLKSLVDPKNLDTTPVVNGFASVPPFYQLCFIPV

| Structure (SMILES) | AC50 |
| --- | --- |
| CN1[C@@H]2CC[C@H]1CC(OC(=O)[C@@H](O)c1ccccc1)C2 (some centres undefined) | inactive |
| CN1CCC[C@@H]1CCO[C@](C)(c1ccccc1)c1ccc(Cl)cc1 | inactive |
| Clc1ccc(CS[C@@H](Cn2ccnc2)c2ccc(Cl)cc2Cl)cc1 | active: 20 nM |
| CCN(Cc1ccncc1)C(=O)[C@@H](CO)c1ccccc1 | active: 3.98 µM and active: 794 nM |

Reference: PubChem BioAssay AID1851 (National Center for Advancing Translational Sciences (NCATS), 2009)
